The full ranking holds about 110,000 compounds; the median of “z-score” is about -0.1, and the highest 2% start at about 2. Some of the results follow.
What follows are compounds tested against Metabotropic glutamate receptor 8 (Rattus norvegicus) (UniProt P70579) (assay: rat mGluR8 modulators via GIRK flux, primary screen, cell-based, thallium flux, HTS (AID 488969)). Conditions: HEK293 rat mGluR8, GIRK (G protein-gated inwardly rectifying potassium channel) thallium flux, FluoZin2; at 10 µM; stronger effect = higher value; submaximal glutamate (EC20) added with thallium.
UniProt P70579, sequence (P70579 whole entry, looked up): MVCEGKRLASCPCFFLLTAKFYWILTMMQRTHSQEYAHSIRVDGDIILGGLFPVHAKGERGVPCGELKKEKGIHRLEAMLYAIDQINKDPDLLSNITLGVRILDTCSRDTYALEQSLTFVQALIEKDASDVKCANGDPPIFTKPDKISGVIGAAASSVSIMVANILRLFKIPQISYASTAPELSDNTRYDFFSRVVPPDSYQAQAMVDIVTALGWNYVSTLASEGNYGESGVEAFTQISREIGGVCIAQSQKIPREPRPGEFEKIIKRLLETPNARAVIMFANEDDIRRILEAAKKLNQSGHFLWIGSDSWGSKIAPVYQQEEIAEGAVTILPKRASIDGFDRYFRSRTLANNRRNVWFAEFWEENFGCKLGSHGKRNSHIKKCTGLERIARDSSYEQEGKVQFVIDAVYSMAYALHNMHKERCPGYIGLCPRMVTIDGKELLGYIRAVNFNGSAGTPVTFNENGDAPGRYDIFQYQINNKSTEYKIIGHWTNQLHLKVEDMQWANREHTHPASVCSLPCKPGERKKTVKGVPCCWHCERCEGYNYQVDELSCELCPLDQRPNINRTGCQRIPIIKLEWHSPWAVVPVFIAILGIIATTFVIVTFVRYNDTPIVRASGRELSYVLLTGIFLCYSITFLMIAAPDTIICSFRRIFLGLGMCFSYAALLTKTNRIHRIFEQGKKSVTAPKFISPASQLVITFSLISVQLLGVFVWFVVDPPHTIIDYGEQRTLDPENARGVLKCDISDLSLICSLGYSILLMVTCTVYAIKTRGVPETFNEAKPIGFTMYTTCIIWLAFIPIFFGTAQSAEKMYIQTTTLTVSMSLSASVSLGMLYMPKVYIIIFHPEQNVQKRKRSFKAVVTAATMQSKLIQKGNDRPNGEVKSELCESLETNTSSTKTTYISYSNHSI
For Cc1ccc(C(=O)N(c2ccccn2)C(C)c2ccco2)cc1C (stereo unspecified), the z-score was -0.0819.
CCOC(=O)c1c(-c2ccc(OCC)cc2)csc1NC(=O)CCN1C(=O)c2ccccc2C1=O showed a z-score of -0.435.
Compound COc1ccc(/C=N/NC(=O)CNC(=O)COc2ccccc2)cc1 has a z-score of 0.338.
Nc1nnc(SCc2cc3c(cc2Cl)OCO3)s1 gave a z-score of 0.235.
For COc1cc(/C=C/C(=O)O)cc(S(=O)(=O)NCCO)c1OC, the z-score was -0.386.
Work on O=C(CSc1nnc2ccccn12)NC(=O)NC1CCCC1 yielded a z-score of -0.0985.
Cc1nn(C)c(Oc2cccc(Cl)c2)c1C=O gave a z-score of -0.19.
C=CC[n+]1c(-c2ccc(OCC)cc2)csc1NNC(=O)Nc1ccccc1 showed a z-score of 0.554.
Work on O=C(CNC(=O)OCc1ccccc1)Oc1cc2oc(=O)cc(-c3ccccc3)c2cc1Cl yielded a z-score of -0.11.
Compound COc1cccc(-n2nnnc2SCC(=O)NCc2ccco2)c1 has a z-score of -0.324.
Cc1cccc(NC(=O)CNc2cc(C)ccc2C)c1 gave a z-score of 0.589.
CCOc1ccc(S(=O)(=O)N(C)c2ccc(OCC(=O)NCc3ccco3)cc2)cc1 was tested, and the z-score was -0.248.
For CC12COC3(C(=O)Nc4cccnc4)CC1CCC32C (stereo unspecified), the z-score was -0.361.
Compound COc1ccc(OCCN(C)Cc2ccccc2)cc1 has a z-score of 0.191.
Cc1cc(C(=O)NCCC2=CCCCC2)c(C)o1 was tested, and the z-score was -0.273.
With Cc1ccc(CNC(=O)C(CCC(N)=O)NC(=O)OCc2ccccc2)cc1 (stereo unspecified) the z-score was -0.289.
Work on CC1CCCN(C/C=C/c2ccccc2[N+](=O)[O-])C1 (stereo unspecified) yielded a z-score of 0.347.
In the case of Cc1ccc([N+](=O)[O-])cc1NC1OC(CO)C(O)C1O (stereo unspecified), the z-score was -0.337.
Cc1cc(-c2ccccc2)nc(N2CCC(C(=O)NCC3CCCCC3)CC2)n1 showed a z-score of 0.452.
O=C(Nc1cccc(Cl)c1)Nc1nnc(CC2=CCCCC2)s1 gave a z-score of 0.419.
Cc1ccc(-n2c(SCC(=O)N3c4ccccc4Sc4ccccc43)nnc2-c2ccncc2)cc1 was tested, and the z-score was -0.152.
O=C(Nc1nc(=S)ss1)c1c(F)cccc1F gave a z-score of -0.588.
For Cc1c(C(=O)N2CCOCC2)sc(NC(=O)c2ccc3c(c2)OCO3)c1C#N, the z-score was -0.0461.
Work on N#CCSCC(=O)Nc1ccc(F)cc1 yielded a z-score of 0.078.
CN(C)c1ccc(/C=N/NC(=O)CCC(=O)NCc2ccccc2)cc1 was tested, and the z-score was -0.256.
N=c1c(-c2nc3ccccc3[nH]2)cc(C(=O)c2cccs2)nn1-c1ccc(Cl)cc1 gave a z-score of -0.263.
CC(C)Cc1cc(C(=O)N2N=C(C(F)F)CC2(O)C(F)F)c2ccccc2n1 (stereo unspecified) showed a z-score of -0.451.
With O=C(COc1ccc(Br)cc1)Nc1ccncc1 the z-score was 0.0078.
Compound Cc1noc(C)c1CSc1nc2ccccc2nc1NS(=O)(=O)c1ccc(Cl)cc1 has a z-score of -2.14.
Compound CC(/C=N/NC(=O)c1nn(C)c(C)c1Br)=C\c1ccccc1 has a z-score of -0.0235.
In the case of CCCCOCCCNC(=O)CCCOc1ccccc1, the z-score was -0.0568.
For CCCCn1c(/N=C/c2c[nH]c3ccccc23)nc2ccccc21, the z-score was -0.327.
With Cc1ccc2c(Cn3cc(C(F)(F)F)cc(Cl)c3=O)cc(=O)oc2c1 the z-score was -0.249.
For CC(NC(=O)Cn1nc(-c2ccccc2)c2ccccc2c1=O)c1ccccc1 (stereo unspecified), the z-score was -0.117.
In the case of CCOC(=O)Nc1cccc(Cl)c1C, the z-score was -0.345.
COc1cc(/C=C2\N=C(c3ccccc3)OC2=O)ccc1OCc1c(C)no[n+]1[O-] showed a z-score of -0.277.
For COc1ccc(N2CCN(C(=O)CNC(=O)c3ccc(C(C)(C)C)cc3)CC2)cc1, the z-score was 0.378.
CC1CCC/C(=N\NC(=O)COc2ccccc2Cl)C1 (stereo unspecified) was tested, and the z-score was 0.319.
For COc1ccc2sc3ccccc3c(=O)c2c1OC, the z-score was 0.156.
With CC1=CC2=NC(=O)CC(C)(C(=O)N(CC(=O)NC(C)(C)C)Cc3cccs3)N2C=C1 (stereo unspecified) the z-score was -0.0195.
With CCN(CC)c1ccc(NC(=O)CN2CCN(c3ccc(F)cc3)CC2)cc1 the z-score was -0.0649.
With CC1CCCC(NC(=O)CCCn2c(=O)[nH]c3cc(Cl)ccc3c2=O)C1C (stereo unspecified) the z-score was 0.035.
COc1ccc(C(=O)Nc2sc3c(c2C(=O)O)CC(C)(C)OC3)cc1 showed a z-score of -0.257.
For CCN(CC)CCOC(=O)c1c(C)n(C)c2ccc(OC)cc12, the z-score was -0.079.
Cc1ccc(Nc2nnc(SCC(=O)Nc3cccc(S(=O)(=O)N4CCCCC4)c3)s2)cc1 gave a z-score of -0.23.
Cc1ccc(Cn2ccc(=O)c(OCc3ccccc3)c2C)cc1 gave a z-score of -0.0263.
CCn1nnnc1SCC(=O)Nc1ccc(OCc2ccccc2)cc1 gave a z-score of 0.107.
FC(F)(F)c1cccc(N2CCN(CC3CC4C=CC3C4)CC2)c1 (stereo unspecified) showed a z-score of 0.232.
Work on CCOC(=O)N1CCC(NC(=O)C2CCCCN2S(=O)(=O)c2ccc(F)cc2)CC1 (stereo unspecified) yielded a z-score of -0.566.
COC(=O)C(CC(=O)Nc1cc(C)ccc1C)Nc1ccccc1OC (stereo unspecified) gave a z-score of -0.367.
With COc1ccc(NC(=O)c2ccc(OC(=S)N(C)c3ccc(OC)cc3)cc2)cc1 the z-score was -0.0222.
Compound CC(=O)c1sc2ccccc2c1OC(=O)c1ccco1 has a z-score of -1.18.
Nc1nncn1C(=O)c1cccs1 gave a z-score of 1.33.
Work on O=c1c2c(-c3ccccc3)csc2nc2n1CCC2 yielded a z-score of -0.283.
For O=C(CCl)N(c1ccccc1)C1CCS(=O)(=O)C1 (stereo unspecified), the z-score was -0.0909.
In the case of O=C(Nc1ccc(Sc2ccc(Br)cc2)cc1)c1ccco1, the z-score was -0.197.
In the case of CCCc1nnc(NC(=O)C(CC)OC(=O)c2cc(C)nc3ccccc23)s1 (stereo unspecified), the z-score was -0.638.
O=C(CCCC(=O)OCC(F)(F)C(F)F)Nc1nccs1 showed a z-score of 0.162.
For CCCN(CCC)CCNC(=O)c1cc2c(C)nc3ccccc3c2o1, the z-score was -0.396.
CCCCOc1ccc(S(=O)(=O)NNC(=O)C2Cc3c(ccc4ccccc34)O2)cc1 (stereo unspecified) was tested, and the z-score was 1.01.
COc1ccc(NC(=O)c2ccc(CN(c3cc(Cl)ccc3C)S(=O)(=O)c3ccccc3)cc2)cc1OC was tested, and the z-score was -0.186.
In the case of CC1CCc2nc(NC(=O)CN3CCN(c4ccc(F)cc4)CC3)sc2C1 (stereo unspecified), the z-score was 0.333.
Cc1cc(C(=O)COC(=O)c2ccc[nH]c2=O)c(C)n1-c1ccccc1 was tested, and the z-score was -0.249.
Cc1ccccc1OCCNC(=O)/C=C/c1ccccc1 showed a z-score of 0.124.
Compound CCN(CC)C(=O)CSc1nc2sc3c(c2c(=O)n1-c1ccc(C)cc1)CC(C)(C)SC3 has a z-score of -1.68.
In the case of COc1ccc(NC(=O)NCc2ccccn2)cc1OC, the z-score was 0.148.
Work on O=C1CCC2(C(=O)O)Sc3ccccc3N12 (stereo unspecified) yielded a z-score of -0.169.
COc1ccc(C(=O)NC(=S)Nc2ccccc2N2CCOCC2)cc1[N+](=O)[O-] showed a z-score of -0.229.
COc1ccc(NC2=C(C(C)=O)C(c3ccc(OC)c(OC)c3)C(C(C)=O)C(C)(O)C2)cc1 (stereo unspecified) showed a z-score of -0.302.
Work on COC(=O)c1onc(-c2c(C)cc(C)cc2C)c1C(=O)OC yielded a z-score of -0.78.
With CC(=O)c1cccc(NC(=O)C2CCN(S(=O)(=O)c3ccc(C)cc3)CC2)c1 the z-score was 0.101.
Compound Cc1nn(C)c(C)c1S(=O)(=O)N1CCC(C(=O)NCC2COc3ccccc3O2)CC1 (stereo unspecified) has a z-score of 0.14.
In the case of O=C(Nc1ccc2nc(-c3ccccc3)[nH]c2c1)c1cccs1, the z-score was -0.335.
COC(=O)c1cc(OC)c(OC)cc1NC(=O)c1ccc(OC)cc1 showed a z-score of 1.48.
Nc1nc(SCC(=O)N2CCCc3ccccc32)n(-c2ccccc2)n1 showed a z-score of 1.69.
O=C(c1cccs1)n1nc(-c2ccccc2)nc1NCc1ccco1 was tested, and the z-score was 0.246.
In the case of OC(c1ccccc1)(c1ccc(F)cc1)C(c1ccccc1)N1CCOCC1 (stereo unspecified), the z-score was -0.295.
For O=C(COc1ccc(Cl)cc1)Nc1ccc(N2CCN(C(=O)c3ccco3)CC2)cc1, the z-score was -0.172.
Cc1ccccc1-c1nn[nH]n1 showed a z-score of -0.33.
In the case of Cc1ccc2nc(NCC(=O)O)nc(-c3ccccc3)c2c1, the z-score was -0.812.
Compound COCc1cc(C)[nH]c(=O)c1C#N has a z-score of -0.172.
With Cc1ccc2oc(=O)n(CCOc3ccccc3Cl)c2c1 the z-score was 0.434.
CC1CCN(C(=O)C2CCC(C)(C(=O)O)C2(C)C)CC1 (stereo unspecified) gave a z-score of -0.000982.
S=C(NCCc1ccccc1)NCC1CCCO1 (stereo unspecified) gave a z-score of -0.0374.
CCOC(=O)c1cnc(SCC(=O)Nc2ccc(NC(C)=O)c(OC)c2)nc1N gave a z-score of 0.0886.
Work on CC(=O)c1cc(C#N)c(SCC(=O)O)nc1C yielded a z-score of 0.242.
For N#CC1=C(N)N2C(=C(C#N)C1c1ccccc1)Sc1ccccc12 (stereo unspecified), the z-score was 0.634.
Work on CNc1sc(C(=O)c2ccccc2F)c(N)c1-c1nc2ccccc2s1 yielded a z-score of 0.623.
COc1ccc(/C(O)=C2/C(=O)C(=O)N(CCN3CCOCC3)C2c2cccnc2)cc1OC (stereo unspecified) gave a z-score of 0.473.
CCCc1cc(C(=O)Nc2ccc(C(C)=O)cc2)no1 showed a z-score of 0.0305.
In the case of CCc1cccc(CC)c1NC(=O)c1ccccc1CCc1ccccc1, the z-score was -0.15.
With CC(=O)Nc1cc(C(=O)N(C)Cc2ccco2)ccc1Sc1ccc(Cl)cc1 the z-score was -0.205.
O=C(O)[C@@H](c1ccccc1)N1Cc2ccccc2C1=O showed a z-score of 0.726.
With COc1ccc(N(CC(=O)Nc2ccc(C)c(C)c2)S(=O)(=O)c2c(C)n[nH]c2C)cc1 the z-score was -0.00199.
C(/CCc1ccccc1)=N\n1cnnc1 gave a z-score of 0.337.
CCOC(=O)c1c(C)[nH]c(C(=O)OCC(=O)Nc2ccc(OCC)cc2)c1C was tested, and the z-score was 0.0222.
Cc1ccc(-c2nn(-c3ccccc3)cc2CN(Cc2ccccc2)C(=O)c2ccco2)o1 gave a z-score of -0.107.
In the case of CSc1ccccc1NC(=O)Nc1ccccc1, the z-score was 0.531.
Work on O=C1C(=O)N(CCCn2ccnc2)C(c2cccnc2)/C1=C(/O)c1ccc(Br)cc1 (stereo unspecified) yielded a z-score of -0.218.
CCC(C)N=Cc1c(NCc2ccco2)nc2c(C)cccn2c1=O (stereo unspecified) was tested, and the z-score was -0.475.
With O=C(NCc1cccnc1)C1CCCN(Cc2cnn(-c3ccccc3)c2-n2cccc2)C1 (stereo unspecified) the z-score was 0.201.
In the case of CCCC1(C(=O)O)NC(c2cccc(OC)c2O)C2C(=O)N(c3ccccc3)C(=O)C21 (stereo unspecified), the z-score was -0.169.
Cc1ccc(Sc2cc(N3CCOCC3)nc(-c3ccccc3)n2)cc1 was tested, and the z-score was 0.0258.
O=C(O)CCC1=C2c3ccccc3CCN2C(=O)CC1 showed a z-score of -0.234.
Compound CCN1CCN(c2cc(SC(C)C)nc(-c3ccc(OC)cc3)n2)CC1 has a z-score of -0.78.
In the case of CCOC(=O)N1CCC(N(CCN(C)C)C(=S)Nc2cccc(C)c2)CC1, the z-score was 0.181.
In the case of Cc1ccccc1NC(=O)C1CCC(C)(C(=O)O)C1(C)C (stereo unspecified), the z-score was 0.0725.
CCOC(=O)N1CCN(C(=O)c2ccc(C#CC3(O)CCCCC3)cc2)CC1 gave a z-score of 0.0727.
For Cc1ccccc1NC(=O)c1ccc(Nc2c([N+](=O)[O-])cc([N+](=O)[O-])c3ccccc23)cc1, the z-score was -0.13.
Cc1nn(C)c(C)c1S(=O)(=O)N(CC(=O)N1CCc2ccccc2C1)c1ccc(C(C)C)cc1 was tested, and the z-score was -0.0258.
CCC(NC(=O)Nc1nccs1)(C(F)(F)F)C(F)(F)F was tested, and the z-score was 0.489.

From PubChem BioAssay AID488969 (Vanderbilt High Throughput Screening Facility, 2010)
